Values joined by “and” are separate entries in the source; they are usually repeats but may differ in a detail not shown here. Equal values may be shown once. Hit rate of the full screen: of about 410,000 compounds, about 5,000 (1.2%) were called active. The shares of active, inactive and inconclusive entries below differ from those in the screen. Calls follow the shape of the dose curve; as a rule, active = well fitted inhibition curve with a large enough effect; inconclusive = small, poorly fitted or top-dose-only effect; inactive = no such curve, though single readings can be large or run the other way. Potencies beside an inconclusive call are fits to weak or partial responses and may not hold up.
Assay: qHTS for Inhibitors of TGF-b; also: nearly all actives have a fitted effect of over 65% in size
Details: HepG2 CAGA-GFP TGF-b/SMAD3 reporter, GFP fluorescence, 18 h, TGF-beta stimulated, 500 pg/mL final; series mostly up to 46.1 µM
Summary of the method: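 Smad-responsive CAGA-GFP expression was quantified in HEPG2 cells exposed to compounds and 500 pg/mL final TGF-beta for 18 h at 37 degrees C; unstimulated wells defined full inhibition.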
Potency is read from the fitted curve at half-maximal effect; tags tell the direction and shape of the fitted curve.

SMILES | Potency
COc1ccc(C(=O)CSc2nc(-c3ccccn3)nc(C)c2Cl)cc1 | inactive
CCOC(=O)Cc1csc(NC(=O)Nc2cccc(Cl)c2)n1 | inconclusive: 35.5 µM [inhibitor, single point]
CCCCNc1ncnc2c1nnn2C | inconclusive: 3.55 µM [inhibitor, partial curve, poor fit]
CCOC(=O)C1=C(C)Nc2ccccc2N=C1NC(=O)c1ccc(Cl)c(S(=O)(=O)N2CCCC2)c1 | inconclusive: 6.31 µM [inhibitor, single point]
COc1ccc2c3n(nc2c1)CCN=C3c1ccc(C)cc1 | inactive
CCCCn1nnc(NC(=S)NC(=O)c2ccc(OCC)c([N+](=O)[O-])c2)n1 | inconclusive: 1.78 µM [inhibitor, full curve]
CCCCNC(=O)c1ccc2c(c1)NC(=O)C(CS(=O)(=O)Cc1cccc(C)c1)N2 (configuration not stated) | inconclusive: 10 µM [inhibitor, partial curve, poor fit]
COc1cc2c(cc1OC)C(c1cccs1)N(C(=O)C(C)C)CC2 (configuration not stated) | inconclusive: 11.2 µM [inhibitor, partial curve, poor fit]
O=C1CCN(Cc2ccccc2)CCN1CCO | inconclusive: 7.94 µM [inhibitor, partial curve, poor fit]
Cc1ccc(F)cc1C(=O)N1CCCC(C)(C(=O)NS(=O)(=O)C2CC2)C1 (configuration not stated) | inactive
CCOc1cc(CNCCSc2nnnn2C)cc(Br)c1OCc1ccccc1 | inconclusive: 35.5 µM [inhibitor, single point]
O=C(NC(=S)NC1CCN(Cc2ccccc2)CC1)c1ccc(F)cc1 | inconclusive: 17.8 µM [inhibitor, partial curve, poor fit]
CCOCCCNC(=O)c1cc(-c2ccc(Br)s2)nc2ccccc12 | inactive
COc1cccc2sc(N(Cc3cccnc3)C(=O)Cc3ccccc3)nc12 | inconclusive: 3.55 µM [inhibitor, full curve, poor fit]
N/C(=N\OC(=O)COc1ccc(Cl)cc1Cl)c1cccnc1 | inconclusive: 35.5 µM [inhibitor, single point]
COc1cc(-c2cc(=O)c3c(O)cc(O)cc3o2)ccc1O | inconclusive: 25.1 µM [inhibitor, single point]
Cc1ccc(C)c(N2CCN(S(=O)(=O)c3ccc4[nH]c(=O)ccc4c3)CC2)c1 | inconclusive: 35.5 µM [inhibitor, single point]
CN1C(=O)N(CC(=O)N2CCN(S(=O)(=O)Cc3ccccc3)CC2)C(=O)C12CCCCC2 | inactive
O=C(COC(=O)CCc1ccc(S(=O)(=O)N2CCOCC2)cc1)Nc1ccccc1[N+](=O)[O-] | inconclusive: 0.112 µM [inhibitor, full curve, poor fit]
Oc1ccc(Cl)cc1CNc1ccc(Br)cn1 | inconclusive: 35.5 µM [inhibitor, partial curve, poor fit]
COc1cc2cc(C(=O)N3CCN(Cc4ccc5c(c4)OCO5)CC3)[nH]c2cc1OC | inconclusive: 12.6 µM [inhibitor, partial curve]
Cn1c(N2CCN(c3ccccn3)CC2)nc2c1c(=O)n(Cc1ccccc1Cl)c(=O)n2C | inconclusive: 1 µM [inhibitor, full curve]
Cc1cc(F)ccc1NCc1ccccc1[N+](=O)[O-] | inactive

SMILES | Potency
O=C(Nc1cccc(Cl)c1)c1ccc(S(=O)(=O)NCC2CCCO2)cc1 (configuration not stated) | inconclusive: 8.91 µM [inhibitor, partial curve]
COc1ccc(/C=C/C(=O)OCC(=O)c2ccccc2F)cc1 | inconclusive: 12.6 µM [inhibitor, single point]
O=C(NCc1ccco1)c1ccc(Cn2c(=S)[nH]c3ccccc3c2=O)cc1 | inconclusive: 12.6 µM [inhibitor, partial curve, poor fit]
CC[N+](CC)(CC)c1ccc(/C=C/c2ccnc3ccccc23)cc1 | active: 2.51 µM
Cc1cc(C)c2nc(N(Cc3cccnc3)C(=O)c3ccc(S(=O)(=O)N(C)C)cc3)sc2c1 | inactive
CCN(CC)CCCNC(=O)CSc1c2c(nc3cc(Cl)ccc13)CCCC2 | active: 11.2 µM
Cn1ccc2c(/C=C/c3ccc(F)cc3)cc3c(c21)C1CCC3O1 (configuration not stated) | inconclusive: 0.794 µM [inhibitor, full curve, poor fit]
O=C(/C(=N\Nc1ccc([N+](=O)[O-])cc1)Sc1nnnn1-c1ccccc1)c1ccccc1 | active: 7.94 µM
COc1cccc(NC(=O)CSc2nc(=O)n(Cc3ccco3)c3c2CCC3)c1 | inconclusive: 12.6 µM [inhibitor, partial curve, poor fit]
Cc1cc(C)nc(/N=C(\NC(=O)C(C)(C)C)Nc2ccccc2)n1 | inactive
O=C(CSc1nnc(SCc2ccc(Cl)cc2)s1)N/N=C/c1c(Cl)cccc1Cl | inactive
Cc1sc2ncn(CC(=O)N3CCN(c4ccc(F)cc4)CC3)c(=O)c2c1S(=O)(=O)N1CCCCC1 | inconclusive: 0.708 µM [inhibitor, full curve, poor fit]
Cc1ccc(S(=O)(=O)c2cn(CC(=O)Nc3ccc4c(c3)OCO4)c3ccccc3c2=O)cc1 | inconclusive: 22.4 µM [inhibitor, partial curve, poor fit]
COc1ccccc1NC(=S)N=Nc1c(O)[nH]c2ccc(Br)cc12 | inconclusive: 10 µM [inhibitor, partial curve]
c1ccc(C[C@H]2CNCCN2CCc2cccc3ccccc23)cc1 | inconclusive: 35.5 µM [inhibitor, single point]
CN(C)Cc1c(O)ccc2ccccc12 | inactive
Cc1cccc2sc(N(CCCN(C)C)C(=O)c3ccc(Cl)s3)nc12 | inconclusive: 25.1 µM [inhibitor, single point] and inconclusive: 22.4 µM [inhibitor, single point]
COc1ccc(OC)c(CNC(=O)C2CCC(=O)N2C(C)C)c1 (configuration not stated) | inactive
COCCOC(=O)N1CCN(/[N+]([O-])=N/Oc2ccc([N+](=O)[O-])cc2[N+](=O)[O-])CC1 | inconclusive: 15.8 µM [inhibitor, single point]
Cc1csc2nc(COC(=O)c3ccccc3NC(=O)COc3ccccc3F)cc(=O)n12 | inconclusive: 3.16 µM [inhibitor, single point]
COc1ccc(-c2noc(CCC(=O)Nc3ccc4c(c3)OCCO4)n2)cc1 | inconclusive: 35.5 µM [inhibitor, single point]
CCc1ccc(NC(=O)C2=CC(c3ccc(OC)cc3)=NS(=O)(=O)N2C)cc1 | inconclusive: 35.5 µM [inhibitor, single point]
Cc1ccc(S(=O)(=O)Nc2ccc3c(c2)CC(=O)N([C@H](C)CO)C[C@@H](C)[C@H](CN(C)Cc2ccc(-c4ccccc4)cc2)O3)cc1 | active: 11.2 µM

SMILES | Potency
O=C1c2ccc(Oc3ccc([N+](=O)[O-])cc3)cc2C(=O)N1CCCO | inactive
CCOc1ccc2nc(SC3CC(=O)N(c4ccc(OC)cc4)C3=O)sc2c1 (configuration not stated) | inconclusive: 15.8 µM [inhibitor, single point]
CN(CC(=O)Nc1cccc(F)c1)CC(=O)NC(c1ccccc1)c1ccccc1 | inactive
Cc1ccc(-n2c(=O)c3c4c(sc3n(Cc3cccc(Cl)c3)c2=O)CCC4)cc1C | inconclusive: 0.562 µM [inhibitor, full curve, poor fit]
COc1ccc(OC)c(-c2csc(NC(=O)Cc3cc(OC)c(OC)c(OC)c3)n2)c1 | inconclusive: 11.2 µM [inhibitor, partial curve]
COC(=O)c1sccc1NC(=O)Nc1ccc(C)cc1C | inactive
CCOC(=O)c1cccc(NC(=O)C2CCCN(S(=O)(=O)c3ccc4c(c3)oc(=O)n4C)C2)c1 (configuration not stated) | inconclusive: 11.2 µM [inhibitor, partial curve, poor fit]
Cc1ccc(S(=O)(=O)Oc2ccccc2/C=N/N=C(N)N)cc1 | inconclusive: 31.6 µM [inhibitor, single point]
COc1ccc(CN2CCNC(=O)C2CC(=O)N(C)CC2CCOCC2)cc1C (configuration not stated) | inactive
Cn1c(S(=O)(=O)c2ccc([N+](=O)[O-])cc2)nc(Br)c1Br | inconclusive: 15.8 µM [inhibitor, single point]
COC(=O)CCSCC(=O)Nc1ccc(S(=O)(=O)N2CCOCC2)cc1OC | inactive
C=CCC(CC=C)(CNC(=O)C(=O)Nc1cc(C)ccc1OC)c1ccc(OC)c(OC)c1 | inactive
O=C(O)c1cc2n(n1)C(C(F)(F)F)CC(c1ccccc1)N2 (configuration not stated) | inconclusive: 3.55 µM [inhibitor, single point]
CC(=O)N1N=C(c2ccncc2)CC1c1ccccc1O (configuration not stated) | inconclusive: 0.0891 µM [inhibitor, full curve, poor fit]
O=C(COC(=O)c1cccs1)Nc1nc(-c2ccccc2)cs1 | inactive
O=[N+]([O-])c1cc(Cl)cc2c1nc(NCCO)c1ccccc12 | inconclusive: 15.8 µM [inhibitor, single point]
COc1cc(/C=C2\CCc3c2nc2ccccc2c3C(=O)O)cc(OC)c1OC | inactive
O=C(Nc1ccc(F)cc1)N1CCC(c2nc3c(nnn3Cc3cccc(Cl)c3)c(=O)[nH]2)CC1 | inactive
O=C(C=Cc1ccccc1)c1ccc([N+](=O)[O-])cc1 | inconclusive: 22.4 µM [inhibitor, single point]
CCOc1cc(/C=C2\COc3ccccc3C2=O)cc(Br)c1OCC(=O)N(C)C | active: 3.55 µM
O=C(/C=C/c1ccncc1)c1cc(Cl)ccc1O | inconclusive: 35.5 µM [inhibitor, single point]

Source: PubChem BioAssay AID588855 (National Center for Advancing Translational Sciences (NCATS), 2011)
